# Experimental data published in PubChem BioAssay AID686978 (National Center for Advancing Translational Sciences (NCATS), 2013).
# Where “and” joins values, the source holds several entries; their conditions need not be identical. Identical values can stand only once. The whole screen tested about 420,000 compounds, of which about 64,000 (15%) were called active. This list was built around the results that the source calls inconclusive (neither active nor inactive); the mix of calls is not that of the screen. Calls follow the shape of the dose curve; as a rule, active = well fitted inhibition curve with a large enough effect; inconclusive = small, poorly fitted or top-dose-only effect; inactive = flat fitted curve, though single readings scatter. A potency beside an inconclusive call is a rough fit, not a confirmed value.
# Assay: qHTS for Inhibitors of human tyrosyl-DNA phosphodiesterase 1 (TDP1): qHTS in cells in absence of CPT; also: nearly all actives have a fitted effect of over 55% in size
# Conditions: DT40 Tdp1-/- hTDP1 cells, no CPT, ATP luminescence, 48 h; activity change, negative = growth inhibition: at 46.2 µM (top of the series) unless noted
# In short: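 Chicken DT40 Tdp1-/- cells complemented with human TDP1, screened without camptothecin (DMSO vehicle only), 400 cells/well. Compounds pin-transferred, cells incubated at 37 °C for at least 48 hr. Growth read as ATP-dependent luminescence (CellTiter-Glo, 30 min at RT).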
# % is scaled to controls: 0 for no effect and ±100 for the full control effect; potency is read from the fitted curve at half-maximal effect; tags tell the direction and shape of the fitted curve.
SMILES,Potency,"activity change, negative = growth inhibition"
Nc1[nH][nH]c(=O)c1N=Nc1cccc(Cl)c1,inactive,–
O=[N+]([O-])c1ncc(Br)cc1Nc1ccccc1,"inconclusive: 25.9 µM [inhibitor, single point]",–
O=S1(=O)CC(N2CCN(Cc3ccccc3F)CC2)CN1Cc1cn(Cc2ccc(F)cc2)nn1 (stereo not given),"inconclusive: 18.4 µM [inhibitor, single point]",–
O=c1c(-c2ccc(F)cc2)nc2cnc(N3CCNCC3)nc2n1Cc1cccs1,"inconclusive: 29.1 µM [inhibitor, single point]",–
CCc1ccc(NC(=O)Cn2c(=O)n(-c3ccc(OC)cc3)c(=O)c3ccc(C(=O)NCc4ccc(C)cc4)cc32)cc1,active: 7.31 µM,–
COc1cc(CNc2ncnc3c2[nH]c2ccc(C)cc23)cc(OC)c1,active: 20.6 µM,–
COc1ccc(CC(N)c2csc(Nc3ccccn3)n2)cc1 (stereo not given),active: 25.9 µM,–
c1ccc2c(c1)CCN(c1nc(CN3CCOCC3)nc3sc4c(c13)CCCC4)C2,active: 16.4 µM,–
O=C(c1cc(-c2ccco2)nc2ccccc12)N1CCN(c2ccc(F)cc2)CC1,active: 13 µM,–
O=C1c2ccccc2C(=O)N1S(=O)(=O)c1ccccc1,inactive,–
COc1ccc(OCC(=O)Nc2nnc(C)s2)cc1,inactive,–
CSCC[C@H](NC(=O)COc1ccc(Cl)cc1)c1nc2ccccc2[nH]1,"inconclusive: 14.6 µM [inhibitor, partial curve]",–
Nc1cc([N+](=O)[O-])cc2oc(-c3ccccc3)cc12,"inconclusive: 0.58 µM [inhibitor, full curve, poor fit]",–
COCCNC(=O)/C(C#N)=C/c1ccc(SC)cc1,"inconclusive: 32.6 µM [inhibitor, partial curve, poor fit]",–
Cc1cccc(OCCCC(=O)Nc2ccc(Br)cc2)c1,inactive,–
O=c1[nH]c(C2CCCN(S(=O)(=O)c3ccc(F)cc3)C2)nc2c1nnn2Cc1ccc(F)cc1 (stereo not given),"inconclusive: 16.4 µM [inhibitor, single point]",–
NC(=S)N=Nc1c(O)[nH]c2c(Br)cc(Br)cc12,active: 20.6 µM,–
COc1ccccc1CNC(=O)CS(=O)(=O)c1ccccc1,inactive,–
Cc1ccc(Cc2nc3ccccc3nc2SCC(=O)N2CCN(c3ccc(F)cc3)CC2)cc1,"inconclusive: 16.4 µM [inhibitor, single point]",–
C[C@H](CO)N1C[C@H](C)[C@@H](CN(C)S(=O)(=O)c2ccccc2)Oc2ccc(NC(=O)C3CCCCC3)cc2C1=O,"inconclusive: 29.1 µM [inhibitor, single point]",–
Nc1[nH]c(C(=O)c2ccccc2)c(-c2ccccc2Cl)c1C(=O)c1ccccc1,"inconclusive: 23.1 µM [inhibitor, partial curve]",–
CN(Cc1ccccc1)C1(CNC(=O)CCC(F)(F)F)Cc2ccccc2C1,"inconclusive: 18.4 µM [inhibitor, single point]",–
COc1ccc(-c2cccc(NS(=O)(=O)c3ccc([N+](=O)[O-])cc3)c2)nn1,"inconclusive: 18.4 µM [inhibitor, partial curve, poor fit]",–
Cc1ccccc1C(=O)NC(=S)Nc1ccccc1C(F)(F)F,"inconclusive: 8.2 µM [inhibitor, partial curve]",–

SMILES,Potency,"activity change, negative = growth inhibition"
Cc1nn(C)cc1CNC(=O)Nc1ccc(Br)cc1Cl,inactive,–
O=C(Nc1cn(-c2ccccc2)nc1-c1ccccc1)c1ccccc1,"inconclusive: 29.1 µM [inhibitor, single point]",–
COC(=O)c1cc(S(=O)(=O)N2CCN(c3ccccc3OC)CC2)cn1C,"inconclusive: 29.1 µM [inhibitor, single point]",–
Cc1ccc(Nc2cc(C)nn2-c2nc(C)cc(C)n2)cc1,active: 5.8 µM,–
CCOc1cc(CNc2ccccc2)cc(Br)c1OCC(=O)NC(C)(C)C,"inconclusive: 16.4 µM [inhibitor, single point]",–
CCc1ccc(-n2nc(C)c3c(C)cc(=O)n(CC(=O)Nc4ccc(F)cc4C)c32)cc1,inactive,–
Cc1nnc(SCC(=O)NCc2ccccc2Cl)c2nn(-c3ccccc3)c(C)c12,active: 23.1 µM,–
C=CCOc1c(OC)cc(/C=N/Nc2cccc(C(=O)O)c2)c(Br)c1Br,active: 16.4 µM,–
CC(C)N(Cc1nc(-c2ccc(Cl)cc2)no1)C(=O)CCC1CCCC1,"inconclusive: 29.1 µM [inhibitor, single point]",–
CC(=O)NCCC(=O)Nc1cc(S(=O)(=O)N2CCCCC2)ccc1Oc1cccc(C)c1,"inconclusive: 16.4 µM [inhibitor, single point]",–
COc1ccc(C(=O)/C=C/Nc2c(C)n(C)n(-c3ccccc3)c2=O)cc1OC,active: 16.4 µM,–
CCOC(=O)c1[nH]c2ccc(OC)cc2c1NC(=O)CN1CCc2ccccc2C1,active: 16.4 µM,–
CCOC(=O)c1ccc(CNCc2ccccc2)cc1,"inconclusive: 7.31 µM [inhibitor, full curve, poor fit]",–
CC1CCCCN1S(=O)(=O)c1ccc2c(c1)CCN2C(=O)C1CCC1 (stereo not given),"inconclusive: 20.6 µM [inhibitor, single point]",–
COc1ccc(-c2c(C)nn3c(N)c(C#N)cnc23)cc1OC,active: 13 µM,–
CCOC(=O)CNc1nc(C#N)nc(N2CCOCC2)n1,"inactive and inconclusive: 35.5 µM [inhibitor, single point]",–
CSc1nc2ccc(NC(=O)C3CCCO3)cc2s1 (stereo not given),inactive,–
Cc1ccc2c(CN3CCN(C(=O)c4ccc(Br)cc4)CC3)cc(=O)oc2c1,"inconclusive: 23.1 µM [inhibitor, single point]",–
OCC1(Cc2cccc(Cl)c2)CCCN(Cc2ccc(F)c(F)c2)C1 (stereo not given),"inconclusive: 25.9 µM [inhibitor, single point]",–
Cc1ccc2nc(COc3ccc(N(C)S(=O)(=O)c4ccccc4)cc3)cc(=O)n2c1,"inconclusive: 29.1 µM [inhibitor, single point]",–
O=C1CCCC/C1=C/NCc1ccccc1,inactive,–
O=C(/C=C/c1ccc(OCCCF)cc1)NCc1cccc(Cl)c1,"inconclusive: 29.1 µM [inhibitor, single point]",–
CCC(C(=O)N1CCN(c2cc(C)ccc2C)CC1)n1nc(C)n2c(cc3occc32)c1=O (stereo not given),"inconclusive: 20.6 µM [inhibitor, single point]",–
COc1cc(-c2ccc(N3C(c4ccsc4)=Cc4ccccc4C3CC(C)=O)cc2)cc(OC)c1OC (stereo not given),"inconclusive: 13 µM [inhibitor, partial curve]",–

SMILES,Potency,"activity change, negative = growth inhibition"
Cc1cc(C)n2nc(SCC(=O)N(C)c3ccccc3)nc2n1,inactive,–
CN(C)C1CCC(CC2CCc3ccccc32)CC1 (stereo not given),"inconclusive: 25.1 µM [inhibitor, single point]",–
COc1ccc(N=c2cc(-c3ccc(O)cc3)oc3ccccc23)cc1,"inconclusive: 23.1 µM [inhibitor, single point]",–
Cn1c(=O)c2c(nc(N3CCOCC3)n2Cc2ccc(Br)cc2)n(C)c1=O,active: 20.6 µM,–
Cc1ccc(NC(=O)c2nc(S(=O)(=O)Cc3ccccc3C)ncc2Cl)cc1C,active: 1.64 µM,–
CCOC(=O)[C@]12CCCC=C1N(Cc1ccc(Cl)cc1Cl)C(=O)[C@H](CC(=O)N1CCN(C(=O)C3CC3)CC1)C2,"inconclusive: 23.1 µM [inhibitor, single point]",–
Cc1c(Cl)cnc(NC(=O)COC(=O)c2ccncc2)c1Cl,inactive,–
CCOC(=O)C1C(=O)C=C(c2ccc(C)cc2)CC1c1ccco1 (stereo not given),"inconclusive: 25.9 µM [inhibitor, single point]",–
Cc1ccc(C)c(N2CCN(C(c3ccc(N(C)C)cc3)c3nnnn3C(C)(C)C)CC2)c1 (stereo not given),"inconclusive: 29.1 µM [inhibitor, single point]",–
Cc1ccc(/C=C(\NC(=O)c2ccccc2)C(=O)NC2CCN(Cc3ccccc3)CC2)o1,inactive,–
COc1ccc(S(N)(=O)=O)cc1C(=O)OCCCC(=O)c1ccccc1,"inconclusive: 29.1 µM [inhibitor, single point]",–
COc1ccc(S(=O)(=O)N2CCC(C(=O)Nc3cccc(C(C)=O)c3)CC2)cc1,"inconclusive: 18.4 µM [inhibitor, partial curve]",–
CC(C)CC1Nc2ncnc(N3CCN(c4ccccc4)CC3)c2N(Cc2ccc(Cl)cc2)C1=O (stereo not given),active: 18.4 µM,–
COc1cccc(/C=N/Nc2ccc(S(=O)(=O)O)cc2)c1O,inactive,–
Cc1ccc(NC(=O)c2cc(S(=O)(=O)NCC3CCCO3)ccc2F)cc1 (stereo not given),"inconclusive: 32.6 µM [inhibitor, single point]",–
COc1ccc(NC(=O)C2CCN(c3ccc(Sc4ccc(C)cc4)nn3)CC2)c(OC)c1,"inconclusive: 18.4 µM [inhibitor, partial curve, poor fit]",–
OC(COc1ccc(Cl)cc1)CN1C2=NCCCN2c2ccccc21 (stereo not given),active: 20.6 µM,–
CCc1ccc(N2CC(C(=O)Nc3ccc(S(=O)(=O)NCC4CCCO4)cc3)CC2=O)cc1 (stereo not given),–,inconclusive: -33.3% [inhibitor]
O=C(CC(c1ccccc1)c1ccccc1)Nc1ccc(C(=O)O)cc1,inactive,–
COc1ccc(/C(N)=N/OC(=O)c2ccc3ccccc3c2)cc1OC,"inconclusive: 20.6 µM [inhibitor, single point]",–
C[C@H](O)[C@@H]1CN2CCc3c([nH]c4ccccc34)[C@@H]2C[C@@H]1N(C)C(=S)NCCc1ccccc1,"inconclusive: 20.6 µM [inhibitor, single point]",–
COc1cc([N+](=O)[O-])ccc1NC(=O)Cn1ccsc1=N,"inconclusive: 32.6 µM [inhibitor, partial curve, poor fit]",–
